Results are given in words; binding and its absence hold for the method and conditions named. Binding seen in cells or lysates may run through a third protein. Some results given as binding are weak or reduced against the parent protein; the word gives no strength. Where a sequence is shown, tags or fusion partners need not be part of it.
Columns and labels:
[1] = biological target: T1, recombinant Loqs fused to glutathione S-transferase (Drosophila) (UniProt Q9VJY9); assay: pull-down; GST-Loqs or GST bound to glutathione Sepharose 4B; 35S-labeled in vitro translated Dicer-1, treated with RNase A; Buffer A with 0.1% NP-40; extensive washing; SDS-PAGE and autoradiography; only the target purified
T1 sequence: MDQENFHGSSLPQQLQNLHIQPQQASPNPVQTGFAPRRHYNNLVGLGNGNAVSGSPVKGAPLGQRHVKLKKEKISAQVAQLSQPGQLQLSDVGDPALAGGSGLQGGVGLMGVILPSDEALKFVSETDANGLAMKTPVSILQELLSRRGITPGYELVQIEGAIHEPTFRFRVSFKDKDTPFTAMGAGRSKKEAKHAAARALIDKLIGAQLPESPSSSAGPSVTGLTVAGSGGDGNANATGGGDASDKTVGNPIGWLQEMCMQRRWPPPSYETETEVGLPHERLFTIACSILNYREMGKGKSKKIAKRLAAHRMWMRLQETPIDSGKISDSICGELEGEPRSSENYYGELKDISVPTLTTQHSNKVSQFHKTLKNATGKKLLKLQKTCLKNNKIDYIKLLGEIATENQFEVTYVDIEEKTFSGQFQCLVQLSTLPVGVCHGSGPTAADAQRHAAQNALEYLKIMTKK

By UniProt entry, the sequences of proteins in these tests, tags left out.
UniProt Q32KD4: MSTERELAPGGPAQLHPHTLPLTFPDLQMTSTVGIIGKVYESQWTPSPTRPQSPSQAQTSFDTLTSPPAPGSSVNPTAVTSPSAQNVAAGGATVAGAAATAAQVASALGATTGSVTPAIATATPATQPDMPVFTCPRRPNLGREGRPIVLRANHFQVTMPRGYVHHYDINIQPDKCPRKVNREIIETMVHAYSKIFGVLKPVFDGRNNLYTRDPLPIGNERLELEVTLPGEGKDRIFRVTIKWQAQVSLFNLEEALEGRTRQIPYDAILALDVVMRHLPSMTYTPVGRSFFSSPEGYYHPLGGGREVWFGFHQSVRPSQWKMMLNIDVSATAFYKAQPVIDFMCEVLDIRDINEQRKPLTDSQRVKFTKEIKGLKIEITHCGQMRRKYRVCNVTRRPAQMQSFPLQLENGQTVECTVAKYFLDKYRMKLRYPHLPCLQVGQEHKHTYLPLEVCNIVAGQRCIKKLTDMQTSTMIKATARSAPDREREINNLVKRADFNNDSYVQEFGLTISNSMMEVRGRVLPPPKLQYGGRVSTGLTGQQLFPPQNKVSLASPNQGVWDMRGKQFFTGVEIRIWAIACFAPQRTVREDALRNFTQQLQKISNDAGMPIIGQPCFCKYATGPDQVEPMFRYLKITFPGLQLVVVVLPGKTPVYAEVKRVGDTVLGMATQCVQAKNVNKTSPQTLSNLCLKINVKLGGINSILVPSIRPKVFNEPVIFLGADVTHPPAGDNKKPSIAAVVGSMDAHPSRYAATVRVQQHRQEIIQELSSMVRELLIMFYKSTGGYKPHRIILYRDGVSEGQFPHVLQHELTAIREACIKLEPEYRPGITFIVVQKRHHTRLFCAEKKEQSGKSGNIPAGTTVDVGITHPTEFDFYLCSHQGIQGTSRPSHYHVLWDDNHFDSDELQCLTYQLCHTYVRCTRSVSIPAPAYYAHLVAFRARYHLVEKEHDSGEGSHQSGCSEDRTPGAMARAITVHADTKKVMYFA
UniProt Q9VCU9: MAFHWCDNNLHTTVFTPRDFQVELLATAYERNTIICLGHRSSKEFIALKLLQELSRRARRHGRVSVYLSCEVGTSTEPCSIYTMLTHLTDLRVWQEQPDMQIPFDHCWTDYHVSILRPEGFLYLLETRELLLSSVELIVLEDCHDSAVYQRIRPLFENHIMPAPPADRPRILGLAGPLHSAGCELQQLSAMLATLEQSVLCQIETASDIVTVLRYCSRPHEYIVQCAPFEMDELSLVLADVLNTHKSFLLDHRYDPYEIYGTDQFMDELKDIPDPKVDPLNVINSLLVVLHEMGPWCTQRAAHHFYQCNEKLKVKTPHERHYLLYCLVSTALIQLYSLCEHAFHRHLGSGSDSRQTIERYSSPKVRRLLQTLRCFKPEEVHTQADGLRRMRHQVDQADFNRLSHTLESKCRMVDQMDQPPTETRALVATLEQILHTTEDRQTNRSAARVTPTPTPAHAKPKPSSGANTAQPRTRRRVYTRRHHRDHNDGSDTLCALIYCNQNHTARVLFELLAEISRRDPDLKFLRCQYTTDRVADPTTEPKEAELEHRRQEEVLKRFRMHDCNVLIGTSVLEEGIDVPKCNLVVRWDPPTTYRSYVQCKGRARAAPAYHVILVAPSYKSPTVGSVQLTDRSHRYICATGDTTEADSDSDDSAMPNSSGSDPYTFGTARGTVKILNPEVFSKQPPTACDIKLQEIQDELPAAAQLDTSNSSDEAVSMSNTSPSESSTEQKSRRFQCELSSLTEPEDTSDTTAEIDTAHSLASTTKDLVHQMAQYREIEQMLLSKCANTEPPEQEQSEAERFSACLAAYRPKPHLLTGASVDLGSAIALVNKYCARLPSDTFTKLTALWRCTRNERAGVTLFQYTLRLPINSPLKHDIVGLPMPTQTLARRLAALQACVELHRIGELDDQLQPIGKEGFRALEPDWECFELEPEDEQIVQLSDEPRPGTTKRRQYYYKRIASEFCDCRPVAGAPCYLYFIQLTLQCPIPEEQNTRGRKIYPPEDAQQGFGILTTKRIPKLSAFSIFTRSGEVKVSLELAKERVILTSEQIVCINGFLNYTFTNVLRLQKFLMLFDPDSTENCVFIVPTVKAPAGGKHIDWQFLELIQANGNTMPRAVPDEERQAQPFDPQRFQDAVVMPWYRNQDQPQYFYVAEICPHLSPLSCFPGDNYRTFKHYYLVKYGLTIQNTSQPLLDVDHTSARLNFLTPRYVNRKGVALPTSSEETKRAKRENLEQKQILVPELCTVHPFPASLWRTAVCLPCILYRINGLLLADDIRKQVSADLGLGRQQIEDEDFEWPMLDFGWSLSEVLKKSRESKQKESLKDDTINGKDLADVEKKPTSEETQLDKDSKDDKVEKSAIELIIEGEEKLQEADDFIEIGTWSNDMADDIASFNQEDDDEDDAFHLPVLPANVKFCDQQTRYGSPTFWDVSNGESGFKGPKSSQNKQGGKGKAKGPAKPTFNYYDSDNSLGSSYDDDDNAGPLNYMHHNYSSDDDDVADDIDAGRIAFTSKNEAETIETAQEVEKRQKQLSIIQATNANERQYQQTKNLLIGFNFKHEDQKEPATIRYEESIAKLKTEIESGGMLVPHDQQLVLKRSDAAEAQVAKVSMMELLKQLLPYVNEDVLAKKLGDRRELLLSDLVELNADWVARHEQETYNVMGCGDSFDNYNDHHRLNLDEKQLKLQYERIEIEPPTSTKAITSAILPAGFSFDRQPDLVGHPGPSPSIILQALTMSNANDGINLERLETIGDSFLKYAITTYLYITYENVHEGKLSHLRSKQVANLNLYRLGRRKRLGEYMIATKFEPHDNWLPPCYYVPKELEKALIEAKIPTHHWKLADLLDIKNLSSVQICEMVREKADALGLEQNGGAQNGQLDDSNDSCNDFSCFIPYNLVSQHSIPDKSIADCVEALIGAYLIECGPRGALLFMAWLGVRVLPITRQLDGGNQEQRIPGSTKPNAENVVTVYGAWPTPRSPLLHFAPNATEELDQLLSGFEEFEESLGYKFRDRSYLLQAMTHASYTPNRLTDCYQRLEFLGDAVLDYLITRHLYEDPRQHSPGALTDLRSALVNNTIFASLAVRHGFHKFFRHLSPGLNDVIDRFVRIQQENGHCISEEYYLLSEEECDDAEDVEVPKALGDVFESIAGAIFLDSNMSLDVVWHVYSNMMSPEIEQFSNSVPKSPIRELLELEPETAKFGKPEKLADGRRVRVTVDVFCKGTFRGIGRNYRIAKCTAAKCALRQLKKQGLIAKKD

[2] = biological target: T2, AGO2 tagged with TAP (Drosophila) (UniProt Q9VUQ5); assay: co-IP; TAP-tagged Argonaute protein and associated material from S2 cytoplasmic lysate (Buffer A, 150 mM KOAc) bound to IgG Sepharose, eluted with SDS sample buffer; Western blot with anti-Dicer-1, anti-AGO1, anti-Flag
T2 sequence: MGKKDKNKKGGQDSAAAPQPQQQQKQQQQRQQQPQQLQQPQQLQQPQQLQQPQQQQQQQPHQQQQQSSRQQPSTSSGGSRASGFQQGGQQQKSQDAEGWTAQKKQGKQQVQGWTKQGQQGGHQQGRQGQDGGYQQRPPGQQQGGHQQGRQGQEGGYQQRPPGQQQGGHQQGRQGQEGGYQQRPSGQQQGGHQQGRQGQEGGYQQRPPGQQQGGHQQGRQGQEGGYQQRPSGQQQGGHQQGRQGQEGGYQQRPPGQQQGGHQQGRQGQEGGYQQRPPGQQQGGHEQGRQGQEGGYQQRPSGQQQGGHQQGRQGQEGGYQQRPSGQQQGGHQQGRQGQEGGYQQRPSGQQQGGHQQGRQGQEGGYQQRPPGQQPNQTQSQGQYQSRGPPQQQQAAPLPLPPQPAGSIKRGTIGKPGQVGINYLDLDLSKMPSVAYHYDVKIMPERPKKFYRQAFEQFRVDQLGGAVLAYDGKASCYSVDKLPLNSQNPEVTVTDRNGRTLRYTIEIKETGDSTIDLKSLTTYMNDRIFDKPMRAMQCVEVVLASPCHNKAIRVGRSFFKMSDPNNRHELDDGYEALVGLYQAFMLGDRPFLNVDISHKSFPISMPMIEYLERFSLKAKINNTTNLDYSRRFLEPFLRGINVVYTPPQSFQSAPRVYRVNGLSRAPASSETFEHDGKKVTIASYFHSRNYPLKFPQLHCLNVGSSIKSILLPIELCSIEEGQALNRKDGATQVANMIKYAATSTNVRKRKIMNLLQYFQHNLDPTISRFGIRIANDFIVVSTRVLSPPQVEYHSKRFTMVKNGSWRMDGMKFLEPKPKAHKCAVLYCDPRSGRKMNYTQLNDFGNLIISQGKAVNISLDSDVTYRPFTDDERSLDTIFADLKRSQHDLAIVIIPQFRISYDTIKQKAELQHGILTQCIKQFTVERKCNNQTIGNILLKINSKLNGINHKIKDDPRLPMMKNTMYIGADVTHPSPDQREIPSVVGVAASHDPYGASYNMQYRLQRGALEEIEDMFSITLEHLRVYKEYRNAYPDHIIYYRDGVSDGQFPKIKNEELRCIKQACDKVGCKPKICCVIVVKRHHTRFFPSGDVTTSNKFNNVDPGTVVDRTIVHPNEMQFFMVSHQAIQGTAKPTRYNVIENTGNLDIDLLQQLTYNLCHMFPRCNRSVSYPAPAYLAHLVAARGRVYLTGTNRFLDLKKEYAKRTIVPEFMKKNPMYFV

[3] = biological target: AGO1 tagged with TAP (Drosophila) (UniProt Q32KD4); assay: as above
[4] = biological target: T3, Flag-tagged Loquacious (Drosophila) (UniProt Q9VJY9); assay: co-IP; Flag-Loqs complex immunopurified from S2 cells with anti-Flag; Dicer-1 found by immunoblotting; data not shown
T3 sequence: T1 sequence

[5] = biological target: T4, full-length myc-tagged Loquacious (Drosophila) (UniProt Q9VJY9); assay: co-IP; S2 cells expressing both myc-Loqs and Flag-Dicer-1; whole cell extract in Buffer A (30 mM HEPES pH 7.4, 150 mM KOAc, 2 mM MgOAc, 5 mM DTT) with 0.1% NP-40; immunoprecipitation with anti-Flag M2 agarose (4 °C, 1 h) or with anti-myc antibody; Western blot
T4 sequence: T1 sequence

[6] = biological target: Flag-tagged Dicer-1 (Drosophila) (UniProt Q9VCU9); assay: as above
[7] = biological target: Flag-tagged Dicer-1 (Drosophila) (UniProt Q9VCU9); assay: co-IP; Flag-Dicer-1 complex purified from S2 extract with anti-Flag under a harsh, high-salt condition (800 mM KOAc); Western blot with anti-myc or anti-Dicer-2

35S-labeled Dicer-1 (from UniProt Q9VCU9 1-2249) (enzyme)
binding [1]: binds

Dicer-1 (endogenous) (from UniProt Q9VCU9 1-2249) (enzyme)
binding [2]: no binding
binding [3]: binds
binding [4]: binds

Flag-tagged Dicer-1 (from UniProt Q9VCU9 1-2249) (enzyme)
binding [5]: binds

B1: full-length myc-tagged Loquacious (protein, UniProt Q9VJY9-1 1-465)
chain: T1 sequence
binding [6]: binds
binding [7]: binds weakly

B2: Flag-tagged Loquacious (protein, UniProt Q9VJY9-1 1-465)
chain: T1 sequence
binding [3]: binds
